# These are yes or no findings as the source states them, for the method shown. In cells and extracts the contact can be indirect. Some binding calls cover weakened binding; strength is not graded here. Sequences can lack the tags named with a protein.
# The chains behind the UniProt entries cited, without tags or fusion partners.
# UniProt Q6MZP7: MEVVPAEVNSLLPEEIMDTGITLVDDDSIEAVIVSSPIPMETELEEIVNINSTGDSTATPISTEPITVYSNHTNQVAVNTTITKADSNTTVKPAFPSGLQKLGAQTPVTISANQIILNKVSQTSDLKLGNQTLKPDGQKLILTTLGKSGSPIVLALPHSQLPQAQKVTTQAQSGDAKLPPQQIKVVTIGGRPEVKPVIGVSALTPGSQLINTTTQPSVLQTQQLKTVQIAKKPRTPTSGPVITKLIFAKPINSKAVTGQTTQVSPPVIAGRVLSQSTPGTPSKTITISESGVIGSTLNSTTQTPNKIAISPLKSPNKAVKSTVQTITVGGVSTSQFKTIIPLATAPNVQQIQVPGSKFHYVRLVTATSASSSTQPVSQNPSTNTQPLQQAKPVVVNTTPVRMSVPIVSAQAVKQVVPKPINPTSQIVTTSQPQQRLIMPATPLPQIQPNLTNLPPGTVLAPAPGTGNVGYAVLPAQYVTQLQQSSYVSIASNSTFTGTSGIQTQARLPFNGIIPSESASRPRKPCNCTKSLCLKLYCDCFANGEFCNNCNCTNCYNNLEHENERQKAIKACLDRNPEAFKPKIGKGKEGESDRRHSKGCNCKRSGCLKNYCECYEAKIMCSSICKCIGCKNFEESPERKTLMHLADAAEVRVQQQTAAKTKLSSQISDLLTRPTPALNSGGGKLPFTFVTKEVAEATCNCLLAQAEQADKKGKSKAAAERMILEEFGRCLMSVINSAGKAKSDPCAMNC
# UniProt P48972: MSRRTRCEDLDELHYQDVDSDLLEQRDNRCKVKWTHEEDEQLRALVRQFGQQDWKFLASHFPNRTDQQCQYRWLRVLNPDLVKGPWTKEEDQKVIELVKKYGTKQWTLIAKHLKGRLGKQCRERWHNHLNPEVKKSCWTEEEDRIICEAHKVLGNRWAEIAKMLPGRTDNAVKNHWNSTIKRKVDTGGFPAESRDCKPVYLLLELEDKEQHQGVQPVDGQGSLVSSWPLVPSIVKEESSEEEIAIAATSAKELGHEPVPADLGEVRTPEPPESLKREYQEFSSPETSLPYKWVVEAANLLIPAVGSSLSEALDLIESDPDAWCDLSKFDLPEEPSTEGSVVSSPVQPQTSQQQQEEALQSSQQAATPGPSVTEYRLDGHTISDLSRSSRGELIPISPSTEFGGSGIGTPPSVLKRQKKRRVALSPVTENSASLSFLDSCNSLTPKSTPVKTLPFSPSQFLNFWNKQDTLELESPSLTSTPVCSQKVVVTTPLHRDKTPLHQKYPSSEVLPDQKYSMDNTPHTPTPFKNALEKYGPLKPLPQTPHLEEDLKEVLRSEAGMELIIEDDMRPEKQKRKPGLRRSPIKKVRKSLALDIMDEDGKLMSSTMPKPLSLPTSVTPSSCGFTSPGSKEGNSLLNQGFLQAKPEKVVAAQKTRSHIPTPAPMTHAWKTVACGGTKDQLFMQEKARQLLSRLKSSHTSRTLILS
# UniProt P10244: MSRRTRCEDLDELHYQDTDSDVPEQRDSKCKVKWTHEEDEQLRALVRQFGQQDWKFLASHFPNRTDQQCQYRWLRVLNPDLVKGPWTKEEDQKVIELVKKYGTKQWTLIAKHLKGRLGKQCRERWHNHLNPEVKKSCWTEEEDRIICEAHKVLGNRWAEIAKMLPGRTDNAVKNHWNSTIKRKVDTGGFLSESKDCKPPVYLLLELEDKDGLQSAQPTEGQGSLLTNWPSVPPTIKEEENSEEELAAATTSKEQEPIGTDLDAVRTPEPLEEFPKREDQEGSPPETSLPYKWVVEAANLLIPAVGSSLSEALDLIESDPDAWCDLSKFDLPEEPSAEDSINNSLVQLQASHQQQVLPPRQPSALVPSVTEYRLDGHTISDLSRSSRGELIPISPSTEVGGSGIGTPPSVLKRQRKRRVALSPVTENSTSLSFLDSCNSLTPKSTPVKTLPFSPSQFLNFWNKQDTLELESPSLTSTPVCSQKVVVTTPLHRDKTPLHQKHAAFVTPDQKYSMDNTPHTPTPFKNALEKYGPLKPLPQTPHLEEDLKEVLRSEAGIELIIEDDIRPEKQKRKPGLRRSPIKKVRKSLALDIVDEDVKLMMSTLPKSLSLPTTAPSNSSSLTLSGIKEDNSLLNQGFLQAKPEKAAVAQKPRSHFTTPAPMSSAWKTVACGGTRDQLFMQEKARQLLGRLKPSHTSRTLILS
# T1: Lin37 CD1 mutant (D101A/R102G/S103A) with C-terminal EGFP tag (mouse) (UniProt Q9D8N6)
# T1 sequence: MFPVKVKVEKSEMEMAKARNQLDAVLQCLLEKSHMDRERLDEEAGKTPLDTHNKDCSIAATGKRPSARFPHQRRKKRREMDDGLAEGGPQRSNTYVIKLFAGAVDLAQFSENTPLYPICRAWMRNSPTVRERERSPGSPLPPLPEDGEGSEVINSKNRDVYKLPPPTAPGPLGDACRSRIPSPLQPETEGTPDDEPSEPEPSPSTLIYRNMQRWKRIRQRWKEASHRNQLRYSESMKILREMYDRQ
# T2: Lin37 CD1+2 mutant (D101A/R102G/S103A and C119A/R120G) with C-terminal EGFP tag (mouse) (UniProt Q9D8N6)
# T2 sequence: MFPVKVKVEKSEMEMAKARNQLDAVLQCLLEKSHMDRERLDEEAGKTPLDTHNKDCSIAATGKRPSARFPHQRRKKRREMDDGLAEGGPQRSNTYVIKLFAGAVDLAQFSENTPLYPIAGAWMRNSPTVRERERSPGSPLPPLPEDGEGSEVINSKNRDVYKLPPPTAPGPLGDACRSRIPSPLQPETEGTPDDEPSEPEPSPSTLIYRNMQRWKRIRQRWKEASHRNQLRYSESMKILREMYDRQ
# T3: Lin37 CD2 mutant (C119A/R120G) with C-terminal EGFP tag (mouse) (UniProt Q9D8N6)
# T3 sequence: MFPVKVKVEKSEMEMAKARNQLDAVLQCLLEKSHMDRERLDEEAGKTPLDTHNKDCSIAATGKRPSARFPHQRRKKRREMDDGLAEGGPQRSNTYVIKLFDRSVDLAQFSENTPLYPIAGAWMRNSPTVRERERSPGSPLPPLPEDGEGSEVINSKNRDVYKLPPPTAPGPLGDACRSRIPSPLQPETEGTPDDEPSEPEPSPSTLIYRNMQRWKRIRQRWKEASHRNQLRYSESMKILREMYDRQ
# T4: Lin37 wild-type with C-terminal EGFP tag (mouse) (UniProt Q9D8N6)
# T4 sequence: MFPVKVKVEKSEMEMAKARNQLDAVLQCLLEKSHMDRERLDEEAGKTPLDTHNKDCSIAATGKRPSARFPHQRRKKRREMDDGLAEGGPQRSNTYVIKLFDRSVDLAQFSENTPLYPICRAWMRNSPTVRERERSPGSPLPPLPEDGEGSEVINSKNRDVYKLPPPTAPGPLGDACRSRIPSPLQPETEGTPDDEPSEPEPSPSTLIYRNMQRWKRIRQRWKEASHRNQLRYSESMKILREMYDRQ
# T5: Lin37 CD1 mutant (D101A/R102G/S103A) with N-terminal FLAG tag (mouse) (UniProt Q9D8N6)
# T5 sequence: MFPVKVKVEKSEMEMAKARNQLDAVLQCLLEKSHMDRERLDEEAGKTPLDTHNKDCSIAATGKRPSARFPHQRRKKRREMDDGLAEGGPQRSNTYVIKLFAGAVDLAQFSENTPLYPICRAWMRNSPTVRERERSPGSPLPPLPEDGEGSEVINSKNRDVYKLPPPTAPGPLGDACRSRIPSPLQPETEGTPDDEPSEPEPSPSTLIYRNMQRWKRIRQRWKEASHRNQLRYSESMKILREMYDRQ
# T6: Lin37 CD2 mutant (C119A/R120G) with N-terminal FLAG tag (mouse) (UniProt Q9D8N6)
# T6 sequence: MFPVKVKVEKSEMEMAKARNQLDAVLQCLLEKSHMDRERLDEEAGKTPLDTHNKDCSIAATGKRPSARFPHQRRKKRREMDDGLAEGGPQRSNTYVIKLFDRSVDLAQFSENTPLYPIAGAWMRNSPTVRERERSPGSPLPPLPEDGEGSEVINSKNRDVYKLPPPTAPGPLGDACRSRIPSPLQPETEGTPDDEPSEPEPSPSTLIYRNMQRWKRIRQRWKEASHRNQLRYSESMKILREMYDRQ
# T7: Lin37 wild-type with N-terminal FLAG tag (mouse) (UniProt Q9D8N6)
# T7 sequence: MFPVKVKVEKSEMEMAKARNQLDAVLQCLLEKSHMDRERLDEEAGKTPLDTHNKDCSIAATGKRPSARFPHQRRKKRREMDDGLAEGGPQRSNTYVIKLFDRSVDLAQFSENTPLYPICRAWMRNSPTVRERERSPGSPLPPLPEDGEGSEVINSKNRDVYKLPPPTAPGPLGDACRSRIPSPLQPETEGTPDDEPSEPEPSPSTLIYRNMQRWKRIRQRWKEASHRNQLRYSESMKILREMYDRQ
# T8: Lin37 CD1+2 mutant (D101A/R102G/S103A and C119A/R120G) with N-terminal FLAG tag (mouse) (UniProt Q9D8N6)
# T8 sequence: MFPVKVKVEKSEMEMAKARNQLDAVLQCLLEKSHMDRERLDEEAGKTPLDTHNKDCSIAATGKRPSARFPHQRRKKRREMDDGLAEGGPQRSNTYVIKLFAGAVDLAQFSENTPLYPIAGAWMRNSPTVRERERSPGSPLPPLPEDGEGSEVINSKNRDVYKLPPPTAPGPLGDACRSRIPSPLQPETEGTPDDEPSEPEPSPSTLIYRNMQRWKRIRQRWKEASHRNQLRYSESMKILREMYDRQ
# Key:
# [1] = biological target: T1, Lin37 CD1 mutant (D101A/R102G/S103A) with C-terminal EGFP tag (mouse); assay: co-IP; C-terminally EGFP-tagged Lin37 variants expressed in HCT116 cells; whole cell extracts in IP lysis buffer; precipitated with anti-EGFP antibodies (µMACS GFP Isolation Kit); endogenous partners detected by Western blot
# [2] = biological target: T2, Lin37 CD1+2 mutant (D101A/R102G/S103A and C119A/R120G) with C-terminal EGFP tag (mouse); assay: as above
# [3] = biological target: T3, Lin37 CD2 mutant (C119A/R120G) with C-terminal EGFP tag (mouse); assay: as above
# [4] = biological target: T4, Lin37 wild-type with C-terminal EGFP tag (mouse); assay: as above
# [5] = biological target: T5, Lin37 CD1 mutant (D101A/R102G/S103A) with N-terminal FLAG tag (mouse); assay: co-IP; N-terminally FLAG-tagged Lin37 variants expressed in NIH3T3 cells; whole cell extracts in IP lysis buffer; precipitated with anti-Flag antibodies (µMACS DYKDDDDK Isolation Kit); endogenous partners detected by Western blot
# [6] = biological target: T6, Lin37 CD2 mutant (C119A/R120G) with N-terminal FLAG tag (mouse); assay: as above
# [7] = biological target: T7, Lin37 wild-type with N-terminal FLAG tag (mouse); assay: as above
# [8] = biological target: T8, Lin37 CD1+2 mutant (D101A/R102G/S103A and C119A/R120G) with N-terminal FLAG tag (mouse); assay: as above
Molecule,binding [1],binding [2],binding [3],binding [4],binding [5],binding [6],binding [7],binding [8]
"Lin54 (endogenous, HCT116) (from UniProt Q6MZP7 1-749)",binds,no binding,binds,binds,–,–,–,–
"Lin9 (endogenous, HCT116) (from UniProt Q5TKA1 1-542)",binds,no binding,binds,binds,–,–,–,–
"B-myb (endogenous, NIH3T3) (from UniProt P48972 1-704)",–,–,–,–,binds,binds,binds,no binding
"Lin54 (endogenous, NIH3T3) (protein, UniProt Q571G4 1-749) MEVVPAEVNSLLPDDIMDTAITLVDEDSIEAVIVSSPIPMETELEEIVNINSTGDSTATPISTEPITVYSNHTNQVAVNTTVSKADSNTTVKPAFPSGLQKLGAQTPVTISANQIILNKVSQTSDLKLGNQTLKPDGQKLILTTLGKSGSPIVLALPHSQLPQAQKVTAQAQPGDAKLPPQQIKVVTIGGRPEVKPVIGVSALTPGSQLINTTTQPSVLQTQQLKTVQIAKKPRTPTSGPVITKLIFAKPINSKAVTGQTTQASPPVVTGRVLSQSTPGTPSKTITISESGVIGSTLNSTTQTPNKIAISPLKSPNKTVKSAVQTITVGGMSTSQFKTIIPLATAPNVQQIQVPGSKFHYVRLVTATTASSSAQPVSQSPSVNTQPLQQAKPVVVNTTPVRMSVPFVQAQAVKQVVPKPINSTSQIVTTSQPQQRLIMPATPLPQIQPNLTNLPPGTVLAPAPGTGNVGYAVLPAQYVTQLQQSSYVSIASNSNFTGTSGIQTQARLPFNGIIPSESTSRPRKPCNCTKSLCLKLYCDCFANGEFCNNCNCTNCYNNLEHENERQKAIKACLDRNPEAFKPKIGKGKEGESDRRHSKGCNCKRSGCLKNYCECYEAKIMCSSICKCIGCKNFEESPERKTLMHLADAAEVRVQQQTAAKTKLSSQISDLLTRPTPALNSAGGKLPFTFVTKEVAEATCNCLLAQAEQADKKGKSKAAAERMILEEFGRCLMSVINSAGKAKSDPCAMHC",–,–,–,–,binds,binds,binds,no binding

# More lines, now with the values ahead:
binding [1],binding [2],binding [3],binding [4],binding [5],binding [6],binding [7],binding [8],Molecule
binds,no binding,binds,binds,–,–,–,–,"B-myb (endogenous, HCT116) (from UniProt P10244 1-700)"
–,–,–,–,binds,binds,binds,no binding,"Lin9 (endogenous, NIH3T3) (protein, UniProt Q8C735 1-542) MAELDQLPDESSSAKALVSLKEGSLSNTWNEKYSSLQKTPVWKGRNAGPAVEMPFRNSKRSRLFSDEDDRQINTKSPKRNQRVAMIPQKFTATMSTPDKKASQKIGFRLRNLLKLPKAHKWCIYEWFYSNIDKPLFEGDNDFCVCLKESFPNLKTRKLTRVEWGKIRRLMGKPRRCSSAFFEEERSALKQKRQKIRLLQQRKVADVSQFKDLPDEIPLPLVIGTKVTARLRGIHDGLFTGQIDAVDTLNATYRVTFDRTGLGTHTIPDYEVLSNEPHETMPISAFGQKQRPSRFFMTPPRLHYTPPLQSPITDGDPLLGQSPWRSKVSGSDTETLGGFPVEFLIQVTKLSKILMIKKEHIKKLREMNTEAEKLKSYSMPIGIEFQRRYATIVLELEQLNKDLNKVLHKVQQYCYELAPDQGLQPADQPTDMRRRCEEEAQEIVRQANSASGQPCVENENLTDLISRLTAILLQIKCLAEGGDLNSFEFKSLTDSLNDIKNTIDASNISCFQNNVEIHVAHIQSGLSQMGNLHAFAANNTNRD"
